Assay results as given in PubChem BioAssay AID504706 (National Center for Advancing Translational Sciences (NCATS), 2011).
Out of some 320,000 compounds screened, about 200 (0.062%) were called active. The shares of active, inactive and inconclusive entries below differ from those in the screen. Calls come from the whole dose curve; as a rule, active = well fitted activation curve with a large enough effect; inconclusive = small, poorly fitted or top-dose-only effect; inactive = no such curve, though single readings can be large or run the other way. No potency is given beside an inconclusive call; the fits are too rough.

assay: qHTS assay for re-activators of p53 using a Luc reporter; conditions: H1299 p53-A138V BP100-luciferase reporter, luminescence, 24 h; series mostly up to 92.2 µM; activity change, positive = activation: at the top concentration; note: nearly all actives have a fitted effect of over 45% in size; for activity change, positive = activation: % of control where 0% means no effect
Method in brief: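 p53-null H1299 cells stably carrying temperature-sensitive p53-A138V and a BP100-luciferase reporter were pinned with compounds (4-point, 1:5 series) and held 24 hrs at 37 deg C. Luminescence was read 10 min after detection reagent.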
Potency is the fitted concentration of half-maximal effect; tags give direction and shape of the fitted curve.

Row | SMILES | activity change, positive = activation | Potency
1 | Cc1cc(OC(=O)c2ccccc2C(F)(F)F)c([N+](=O)[O-])c(=O)[nH]1 | inactive: 5.76% | –
2 | CCS(=O)(=O)N1Cc2ccccc2CC1C(=O)Nc1nc2ccc(F)cc2s1 (stereo not drawn) | – | inconclusive [activator, partial curve, poor fit]
3 | O=C(CC12CC3CC(CC(C3)C1)C2)NC(=S)NCc1ccco1 | – | inconclusive [activator, partial curve]
4 | COc1cccc(/C=C2\SC(N3CCCC(C)C3)=NC2=O)c1OC (stereo not drawn) | – | inconclusive [activator, single point]
5 | CCOc1ccccc1C(=O)N1CCN=C1SCc1cccnc1 | – | inconclusive [activator, partial curve, poor fit]
6 | C/C(=N\Nc1cccc(Cl)c1)c1ccncc1 | inactive: -0.598% | –
7 | O=C(NCCCn1ccnc1)/C(=C\c1ccc(Br)cc1)NC(=O)c1ccccc1F | inactive: 1.75% | –
8 | COC(=O)c1c(NC(=O)Cn2nc(C(F)F)cc2C(F)F)sc(C)c1C | inactive: 1.59% | –
9 | Cc1ccc(C)c(NC(=O)Nc2ccc3c(c2)OCO3)c1 | – | inconclusive [activator, partial curve, poor fit]
10 | Cc1ccccc1-c1nnc(-c2ccc(Cl)cc2)o1 | – | inconclusive [activator, single point]
11 | CCC(CC)C(=O)Nc1nnc(-c2cccs2)s1 | – | inconclusive [activator, partial curve, poor fit]
12 | CC(CCc1ccccc1)NC(=O)c1cc2sccc2n1C (stereo not drawn) | inactive: 4.4% | –
13 | N=C1/C(=C/c2ccc(-c3cccc(C(=O)O)c3)o2)C(=O)N=C2SC=C(c3ccccc3)N12 | inactive: 1.19% | –
14 | Cc1cccc(OCC(=O)N2CCOCC2)c1 | – | inconclusive [activator, partial curve, poor fit]
15 | Cc1cc(OCc2cc(C(=O)N(C)CCc3cnn(C)c3)no2)cc(C)c1Cl | – | inconclusive [activator, partial curve, poor fit]
16 | Cn1c(=O)c2c(nc(N3CCOCC3)n2CCc2ccccc2)n(C)c1=O | – | inconclusive [activator, single point]
17 | CCOC(=O)c1cnc(SCc2ccccc2)nc1N | – | inconclusive [activator, partial curve, poor fit]
18 | O=C(O)[C@H]1CCCC[C@H]1C(=O)Nc1ccc(Nc2ccccc2)cc1 | – | inconclusive [activator, single point]
19 | O=C(Nc1nnc(C23CC4CC(CC(C4)C2)C3)s1)c1ccco1 | – | inconclusive [activator, partial curve, poor fit]
20 | COc1ccc(N(C(=O)c2cccnc2)S(=O)(=O)c2cc(OC)ccc2OC)cc1 | inactive: -8.16% | –
21 | Fc1ccc(F)c(C2=NNC(=Nc3ccccc3F)SC2)c1 | – | inconclusive [activator, partial curve, poor fit]
22 | Cc1ccc(CNS(=O)(=O)c2ccc3c(c2)NC(=O)CS3)cc1 | inactive: -1.79% | –
23 | CCCn1c(SCC(=O)NC2CC2)nnc1-c1cccs1 | – | inconclusive [activator, single point]

Row | SMILES | activity change, positive = activation | Potency
24 | CCOc1ccc2nc(SCC(=O)Nc3ccc4[nH]c(=O)[nH]c4c3)[nH]c2c1 | inactive: 6.06% | –
25 | Cc1cc(C)n2nc(-c3sccc3-n3c(C)ccc3C)cc2n1 | – | inconclusive [activator, single point]
26 | O=C(O)c1ccc(Cl)c2c1C1C=CCC1C(c1ccccn1)N2 (stereo not drawn) | – | inconclusive [activator, partial curve, poor fit]
27 | CCCC(=O)Nc1ccc(NC(=O)c2ccco2)c(OC)c1 | – | inconclusive [activator, partial curve, poor fit]
28 | CN(C)c1ccc(C(=O)/C=C/c2ccco2)cc1 | – | inconclusive [activator, partial curve, poor fit]
29 | COc1ccc(C2CC(c3c(O)cc(C)oc3=O)=NCCS2)c(OC)c1 (stereo not drawn) | – | inconclusive [activator, partial curve, poor fit]
30 | O=C(NC1=NC2CCCCC2N1)c1ccccc1 (stereo not drawn) | – | inconclusive [activator, full curve, poor fit]
31 | Fc1ccc(CNCc2ccc(Br)cc2)cc1 | – | inconclusive [activator, single point]
32 | CCOC(=O)c1ccc(N2C(=O)c3n[nH]c(C)c3C2c2ccc(O)cc2)cc1 (stereo not drawn) | – | inconclusive [activator, single point]
33 | O=C1[C@@H](Oc2ccccc2)[C@@H](c2cnc3ccccc3c2)N1c1ccccc1 | inactive: 4.22% | –
34 | CCc1ccc(NC(=O)NNC(=O)c2cc3ccccc3cc2O)cc1 | – | inconclusive [activator, partial curve, poor fit]
35 | Cc1ccc(S(=O)(=O)NC(C)C(=O)NC(C)c2cccs2)cc1 (stereo not drawn) | – | inconclusive [activator, single point]
36 | CC(C)CCN(C(=O)C1CCCC1)c1c(N)n(Cc2ccccc2)c(=O)[nH]c1=O | – | inconclusive [activator, single point]
37 | Fc1ccc(N/N=C/C=C/c2ccccc2)c(F)c1 | – | inconclusive [activator, full curve, poor fit]
38 | COCCC(=O)N1CCC(Oc2ccc(C(=O)N3CCCCCC3)cc2)CC1 | – | inconclusive [activator, single point]
39 | Cc1ccc(NC(=O)/C=C/c2cccs2)c([N+](=O)[O-])c1 | – | inconclusive [activator, full curve, poor fit]
40 | CC(C)[C@H](NC(=O)c1cccc(S(=O)(=O)N2CCOCC2)c1)C(=O)Nc1nc2ccccc2s1 | – | inconclusive [activator, partial curve, poor fit]
41 | ClC1(Cl)CC1CSc1nc2ccccc2[nH]1 (stereo not drawn) | – | inconclusive [activator, partial curve, poor fit]
42 | CC(C)c1ccc(NC(=O)COC(=O)/C=C/c2cccc([N+](=O)[O-])c2)cc1 | inactive: 3.1% | –
43 | Cc1cccc(Oc2ncnc(N)c2[N+](=O)[O-])c1 | – | inconclusive [activator, single point]
44 | Cc1c(Cc2ccccc2)c(=O)n2c([nH]c3ccccc32)c1C#N | inactive: -2.75% | –
45 | Cc1cc(C)cc(CC2CC(=O)N(c3nc(C)cc(C)n3)C2=O)c1 (stereo not drawn) | – | inconclusive [activator, single point]
46 | COc1ccc2c(c1OC)C(=O)N(c1cccc(C)c1)C2 | – | inconclusive [activator, partial curve, poor fit]

Row | SMILES | activity change, positive = activation | Potency
47 | Cc1[nH]c(=S)sc1Cc1ccc(Cl)c(Cl)c1 | inactive: 5.76% | –
48 | C=CCc1ccccc1OCC(O)CN1CCN(c2ccccc2F)CC1 (stereo not drawn) | – | inconclusive [activator, single point]
49 | O=c1[nH]c2ccc(Cl)cc2c(O)c1-c1ccccc1 | inactive: 18.1% | –
50 | O=C(Nc1ccccc1)N(Cc1ccccc1)C1=NCCS1 | – | inconclusive [activator, single point]
51 | Brc1ccc(-c2cnc(-c3cccs3)o2)cc1 | – | inconclusive [activator, partial curve, poor fit]
52 | O=C(COc1ccccc1F)Nc1nnc(C2CCCC2)s1 | – | inconclusive [activator, single point]
53 | COC(=O)COc1ccc(/C=N/NC(=O)c2ccc(N(Cc3ccccc3)S(C)(=O)=O)cc2)cc1 | inactive: -23.8% | –
54 | Cc1nc2c(c(=O)n1CCC1=CCCCC1)c1nc3ccccc3nc1n2/N=C/c1ccco1 | inactive: 16.3% | –
55 | CCc1ccc2nc(N3C(=O)C(O)=C(C(=O)c4ccco4)C3c3cccs3)sc2c1 (stereo not drawn) | – | inconclusive [activator, partial curve, poor fit]
56 | COc1ccc(OC)c(NC(=S)NCc2cccs2)c1 | inactive: 7.99% | –
57 | COc1ccc(/C=C2/CCc3ccccc3C2=O)cc1OC | – | inconclusive [activator, partial curve, poor fit]
58 | COc1ccc2oc(C(=O)Nc3nc4ccccc4[nH]3)c(C)c2c1 | – | inconclusive [activator, full curve, poor fit]
59 | Cc1cc(N2CCN(c3ccc(C(F)(F)F)cc3[N+](=O)[O-])CC2)c2ccccc2n1 | inactive: -103% | –
60 | COc1ccc(OCC(=O)NC2CC(C)(C)NC(C)(C)C2)cc1 | – | inconclusive [activator, single point]
61 | COc1ccc(-c2nnc(-c3ccc(F)cc3)o2)cc1 | – | inconclusive [activator, partial curve, poor fit]
62 | Cc1ccc(S(=O)(=O)NCCOc2nc(N(C)C)nc(N3CCOCC3)n2)cc1 | – | inconclusive [activator, partial curve, poor fit]
63 | COc1cc(C(=O)/C=C/c2cccnc2)c([N+](=O)[O-])cc1OC | inactive: -28.2% | –
64 | Nc1ccc(/C=C/C(=O)c2cccs2)cc1 | – | inconclusive [activator, full curve]
65 | CC(=O)NCCC(Cc1ccccc1)c1ccco1 (stereo not drawn) | – | inconclusive [activator, partial curve, poor fit]
66 | O=C(NC1CC2CCCC(C1)N2C(=S)Nc1ccccc1)C1CC1 (stereo not drawn) | inactive: 10.3% | –
67 | Cc1nn(C)c(C)c1CNC(=O)Nc1cccc(Cl)c1 | – | inconclusive [activator, partial curve, poor fit]
68 | Cc1ccc(NCCC(=O)c2cccs2)cc1Cl | – | inconclusive [activator, full curve, poor fit]
